These are yes or no findings as the source states them, for the method shown. Binding seen in cells or lysates may run through a third protein. Some entries that bind do so weakly or less than the wild type. For part of these data: Where a sequence is shown, tags or fusion partners need not be part of it.
Key:
[1] = target: T1, peptidylarginine deiminase 1 (PAD1), endogenous (human (endogenous in OVCAR3)) (UniProt Q9ULC6); assay: co-IP; OVCAR3 whole cell lysate immunoprecipitated with anti-PAD1 antibody; western blot with anti-AKT1, anti-AKT2 and anti-AKT3 antibodies; endogenous proteins
T1 sequence: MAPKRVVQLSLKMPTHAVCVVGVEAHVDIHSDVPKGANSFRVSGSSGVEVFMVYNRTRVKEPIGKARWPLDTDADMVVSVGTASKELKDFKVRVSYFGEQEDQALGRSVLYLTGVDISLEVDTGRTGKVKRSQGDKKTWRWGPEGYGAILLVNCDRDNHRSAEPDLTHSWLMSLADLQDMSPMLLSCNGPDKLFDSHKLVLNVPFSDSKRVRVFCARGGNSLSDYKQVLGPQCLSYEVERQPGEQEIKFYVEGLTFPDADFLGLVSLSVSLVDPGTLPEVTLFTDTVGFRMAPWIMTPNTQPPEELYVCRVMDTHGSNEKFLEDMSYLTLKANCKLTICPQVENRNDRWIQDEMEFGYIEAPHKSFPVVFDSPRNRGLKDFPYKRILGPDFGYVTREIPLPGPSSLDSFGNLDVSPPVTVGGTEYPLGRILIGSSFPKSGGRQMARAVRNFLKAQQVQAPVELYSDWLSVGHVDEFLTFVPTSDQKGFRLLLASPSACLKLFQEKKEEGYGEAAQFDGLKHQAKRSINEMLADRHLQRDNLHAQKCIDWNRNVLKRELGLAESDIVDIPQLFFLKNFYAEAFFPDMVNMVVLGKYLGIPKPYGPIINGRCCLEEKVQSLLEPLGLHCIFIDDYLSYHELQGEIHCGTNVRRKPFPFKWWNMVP

Sequences of proteins named here, by UniProt entry; tags and fusion partners are left off.
UniProt P31749: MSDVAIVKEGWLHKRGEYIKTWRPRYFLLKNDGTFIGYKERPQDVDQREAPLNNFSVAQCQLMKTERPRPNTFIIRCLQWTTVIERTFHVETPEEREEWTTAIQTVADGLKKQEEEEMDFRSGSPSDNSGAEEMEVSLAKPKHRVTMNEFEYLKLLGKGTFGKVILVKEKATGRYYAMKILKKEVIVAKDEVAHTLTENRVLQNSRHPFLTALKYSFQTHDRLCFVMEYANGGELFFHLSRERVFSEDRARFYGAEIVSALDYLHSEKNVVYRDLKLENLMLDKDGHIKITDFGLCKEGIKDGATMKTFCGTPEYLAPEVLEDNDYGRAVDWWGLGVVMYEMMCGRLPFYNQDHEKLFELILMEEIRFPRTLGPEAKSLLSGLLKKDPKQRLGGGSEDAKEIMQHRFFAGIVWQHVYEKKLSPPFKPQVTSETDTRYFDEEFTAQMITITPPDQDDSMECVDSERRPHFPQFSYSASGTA
UniProt Q9Y243: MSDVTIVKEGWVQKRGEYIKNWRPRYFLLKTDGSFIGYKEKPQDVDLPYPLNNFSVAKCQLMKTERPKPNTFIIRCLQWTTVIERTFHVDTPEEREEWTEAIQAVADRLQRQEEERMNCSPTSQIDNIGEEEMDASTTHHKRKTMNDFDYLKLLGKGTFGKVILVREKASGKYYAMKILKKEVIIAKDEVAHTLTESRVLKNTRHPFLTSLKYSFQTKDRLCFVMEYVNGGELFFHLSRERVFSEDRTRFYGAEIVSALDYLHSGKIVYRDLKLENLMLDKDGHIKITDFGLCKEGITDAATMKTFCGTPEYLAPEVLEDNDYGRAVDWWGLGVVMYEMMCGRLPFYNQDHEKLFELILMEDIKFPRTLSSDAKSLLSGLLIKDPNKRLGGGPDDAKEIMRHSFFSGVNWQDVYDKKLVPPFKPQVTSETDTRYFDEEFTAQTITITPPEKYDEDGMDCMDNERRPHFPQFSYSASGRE

[2] = target: T2, Flag-tagged PAD1 (human) (UniProt Q9ULC6); assay: co-IP; HEK293 cells co-transfected with Flag-tagged PAD1 and HA-tagged AKT2 or its truncated forms; whole cell lysate immunoprecipitated with anti-Flag or anti-HA antibody; western blot with anti-HA and anti-Flag
T2 sequence: T1 sequence

[3] = target: HA-tagged AKT2 (152–481 aa) (UniProt P31751); assay: as above
[4] = target: HA-tagged AKT2 (full length) (UniProt P31751); assay: as above

Molecule: AKT1, endogenous (from UniProt P31749 1-480) (enzyme)
- binding [1]: no binding

Molecule: AKT2, endogenous (from UniProt P31751 1-481) (enzyme)
- binding [1]: binds

Molecule: AKT3, endogenous (from UniProt Q9Y243 1-479) (enzyme)
- binding [1]: no binding

Molecule: HA-tagged AKT2 (152–481 aa) (from UniProt P31751 152-481) (domain or fragment)
- binding [2]: binds

Molecule: HA-tagged AKT2 (full length) (from UniProt P31751 1-481) (enzyme)
- binding [2]: binds

B1: Flag-tagged PAD1 (enzyme, UniProt Q9ULC6 1-663)
chain: T1 sequence
- binding [3]: binds
- binding [4]: binds

B2: HA-tagged AKT2 (1–108 aa) (domain or fragment, UniProt P31751 1-108)
chain: MNEVSVIKEGWLHKRGEYIKTWRPRYFLLKSDGSFIGYKERPEAPDQTLPPLNNFSVAECQLMKTERPRPNTFVIRCLQWTTVIERTFHVDSPDEREEWMRAIQMVAN
- binding [2]: no binding

B3: HA-tagged AKT2 (1–151 aa) (domain or fragment, UniProt P31751 1-151)
chain: MNEVSVIKEGWLHKRGEYIKTWRPRYFLLKSDGSFIGYKERPEAPDQTLPPLNNFSVAECQLMKTERPRPNTFVIRCLQWTTVIERTFHVDSPDEREEWMRAIQMVANSLKQRAPGEDPMDYKCGSPSDSSTTEEMEVAVSKARAKVTMND
- binding [2]: no binding

— publication PMC12533369, “Citrullination of AKT2 Catalyzed by PAD1 Facilitates the Maintenance of Stemness Characteristics of Ovarian Cancer Stem‐Like Cells in Ovarian Cancer” (Advanced Science, 2025)
